These results are taken from the RNAGym collection of RNA variant scans (doi:10.1093/nar/gkz1192).

The chains are these.
B1: CPEB3 Ribozyme (parent)
chain: UAACAGGGGGCCACAGCAGAAGCGUUCACGUCGCAGCCCCUGUCAGAUUCUGGUGAAUCUGCGAAUUCUGCUGUAUAUCUC

Read counts are not given, so values of variants with three or more changes are uncertain.

Variants of B1 are the subject of this data set. The experiment in a line: self-cleavage, relative activity (ratio to wild type); higher = more cleavage; in vitro, sequencing. The procedure, abridged:
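After error-prone PCR and barcoding, CPEB3 ribozyme mutant libraries were transcribed with T7 RNA polymerase at 37°C for 5 hours, then given 15 min with DNase I before an EDTA stop, and they cleaved during both steps. Reverse transcription with template switching preceded Illumina sequencing. Relative activity divides a variant's cleaved/total read fraction by the unmutated ribozyme's. At least 5 reads were required per variant, and three batches were averaged.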
Take G10C A21U U66C: the self-cleavage turned out to be 0.38.
Next, G10A A18G A21U U41G: 0.05; G10A U25A C40A A57U U72C: 0; G10A A20U U26C A45U U72A: 0.17.
G10A A18G A28U A65G U69A U72C: the self-cleavage is 0.05.
Next, G10A U67C U69A: 0.1; G10A U25C A35G U67C: 0.12; G10C A18G A21G A64G U66C: 0.1.
To G10C A18G C50U U51G A56G A64G U80C belongs 0; to G10C A28G U43A U48C A56G C81A, 0.15.
For the variant G10A C14U C40A U66C U72C, the self-cleavage is 0.08.
To G10A A21G A28U A64U U69A U78C belongs 0.04; to G9U U25C C71G, 0.09.
To G10C A35G A57U belongs 0.12; to G10A A28U U41C U49C G55A, 0.05.
To G10A A64G U74A belongs 0.19.
Turning to G10A A64G U74C, the self-cleavage amounted to 0.12.
Turning to G10A A15U A56G U67C, the self-cleavage is 0.35.
Next, G10A C11A U25C C39U U41A U69A: 0.04; G10A U26A U48C U69A: 0.04.
Next, G9U U31A A45U U60C: 0.18; G9U U49A G61A: 0.19; G10A A13G U66C A75G: 0.06.
To G10A C40A A75U U80C belongs 0.08.
Consider G10A A21G C23A A35U, for which the self-cleavage turned out to be 0.47.
Turning to G9U U60C U66C, the self-cleavage stood at 0.11.
To G10C A28G U60A belongs 0.17; to G10A G24A U48C U54C U60C U80C, 0.04; to G9U C34G A45C C68A U78C, 0.05.
Next, G10A U66G A75G: 0.29; G10A U26A A35G C44G A56G A57G U58G: 0.09.
To G10C A13C A21G belongs 0.29; to G10A A15G U41A G52C G73A U80C, 0.05.
For G10A A13G C50A A57G U58A, the self-cleavage came to 0.22.
As to G10A A18U U51C U78A, the self-cleavage came out at 0.18.
For the variant G9U G46A A56G, the self-cleavage was determined as 0.15.
Turning to G10A A28G A64U U74C, the self-cleavage was 0.18.
Consider G10A A15G G24A U80A, for which the self-cleavage stood at 0.04.
To G10A C11G C34A A45U U51C belongs 0.06; to G10C A28G G46A G53A, 0.07; to G10A G33A U69C, 0.13.
Next, G10C A57G A65G U76A: 0.04; G9U U58C U72C: 0.06.
Next, G9U U26A A65G: 0.05.
On to G10A U41C G61C, for which the self-cleavage worked out at 0.09.
To G10A A15U A45G A57G belongs 0.04; to G10A U25A A28G U72C U76C, 0.04.
Turning to G10A A15U U31G U67C A75G, the self-cleavage stood at 0.08.
To G10C A20G U67C belongs 0.07; to G9U U60C A64U U72C A77C, 0.05; to G9U G16A A28G U72C U78C, 0.14.
Next, G10C A13G U41C A57G U69C: 0.17; G10A U25A U74C: 0.07.
To G10A G46A A56G U66C C71U U72C belongs 0.13.
In the case of G9U C39U U58A U60C, the self-cleavage is 0.04.
To G9U A57G U69G belongs 0.12.
Next, G10A U49G U66A U72G: 0.05.
With G10C A28G A45G U51A A56G U72C, the self-cleavage stood at 0.05.
To G9U U31C A64G U66C U78C belongs 0.08.
Next, G10A A18G U41A U54C: 0.11; G10A C34U U48C: 0.06.
To G10A U25A C40U U51C U72C belongs 0.1; to G10A A28G U41C A64G U67C, 0.04.
For G9U C14U C17U A28G U41G, the self-cleavage came out at 0.03.
To G9U U25C C44U U49A U80A belongs 0.07.
Next, G10A U31C U66C: 0.2; G10A U26C U41A U60C U78C: 0.23; G10A U54A A65U U67G: 0.04.
Take G10C A15G U48A U60C A64G: the self-cleavage was 0.05.
To G10A U58C C62G U66C U72C U78C belongs 0.06; to G10A A18G C39G U49C U51C U80C, 0.04; to G10A A18U C39A U69A, 0.06.
In the case of G9U A47G C62A U76C, the self-cleavage was 0.09.
To G10A A20U A56G A65C belongs 0.03.
To G10C A18G G30A belongs 0.39; to G10C A13U A15G U41A U43C A56G A65G, 0.31.
To G10A G52C U67C U78C belongs 0.04; to G10A U31C A57G, 0.16.
Consider G10A C11U U41C, for which the self-cleavage turned out to be 0.37.
With G10A A35G U43C, the self-cleavage came out at 0.49.
Regarding G10A A20G A28U A35G U48C, the self-cleavage came to 0.35.
For the variant G10A A28U U67C U76C A77U, the self-cleavage stood at 0.02.
For G10A A20G U43C A57G U80A, the self-cleavage worked out at 0.26.
For G10A A18G U26C U41G, the self-cleavage worked out at 0.32.
